Measured values as given in publication PMC4336329 (PLoS ONE, 2015).
Hit rate of the full screen: of about 310,000 compounds, about 2,200 (0.71%) showed an effect of 50% or more. Effects have a minus sign here. This is one part of the list.

The compounds below were run against human ether-à-go-go-related gene (hERG) potassium channel (human, UniProt Q12809) (assay: primary screen, population patch clamp on CHO cells stably expressing hERG).
human ether-à-go-go-related gene (hERG) potassium channel, sequence (Q12809 whole entry, looked up): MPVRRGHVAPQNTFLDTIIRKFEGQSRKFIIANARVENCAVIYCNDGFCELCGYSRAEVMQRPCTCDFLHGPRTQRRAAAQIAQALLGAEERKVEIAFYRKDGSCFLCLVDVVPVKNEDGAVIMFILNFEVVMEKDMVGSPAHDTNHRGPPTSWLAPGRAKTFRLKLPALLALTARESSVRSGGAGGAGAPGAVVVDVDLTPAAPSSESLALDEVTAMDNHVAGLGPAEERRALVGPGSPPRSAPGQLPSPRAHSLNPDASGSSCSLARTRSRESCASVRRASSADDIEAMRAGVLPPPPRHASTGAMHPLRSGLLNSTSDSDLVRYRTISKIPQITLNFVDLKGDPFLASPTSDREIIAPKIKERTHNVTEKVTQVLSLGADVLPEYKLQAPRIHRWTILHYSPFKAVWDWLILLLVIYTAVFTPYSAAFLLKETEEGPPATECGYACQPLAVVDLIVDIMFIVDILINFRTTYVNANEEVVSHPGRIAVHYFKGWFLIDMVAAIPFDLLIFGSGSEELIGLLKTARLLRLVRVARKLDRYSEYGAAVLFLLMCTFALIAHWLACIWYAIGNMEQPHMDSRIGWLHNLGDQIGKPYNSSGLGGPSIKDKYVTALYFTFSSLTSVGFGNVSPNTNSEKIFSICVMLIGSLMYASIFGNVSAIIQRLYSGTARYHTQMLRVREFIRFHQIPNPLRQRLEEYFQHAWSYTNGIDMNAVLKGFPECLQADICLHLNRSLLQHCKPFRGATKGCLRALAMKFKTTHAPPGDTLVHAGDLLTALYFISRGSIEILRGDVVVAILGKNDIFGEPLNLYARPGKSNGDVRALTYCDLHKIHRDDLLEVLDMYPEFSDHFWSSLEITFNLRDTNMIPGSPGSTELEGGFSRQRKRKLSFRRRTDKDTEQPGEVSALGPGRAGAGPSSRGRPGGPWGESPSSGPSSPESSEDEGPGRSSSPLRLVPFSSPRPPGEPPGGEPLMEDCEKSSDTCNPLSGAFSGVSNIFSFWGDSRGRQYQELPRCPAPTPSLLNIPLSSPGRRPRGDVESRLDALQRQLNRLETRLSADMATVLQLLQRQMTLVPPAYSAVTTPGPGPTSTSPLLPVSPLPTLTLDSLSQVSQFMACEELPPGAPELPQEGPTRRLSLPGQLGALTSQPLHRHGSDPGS

| SMILES | hERG current change (%, negative = inhibition) at 1uM |
| --- | --- |
| COc1ccc(C2/C(=C(/O)c3ccccc3)C(=O)C(=O)N2c2ccccn2)c(OC)c1 (centres unmarked) | 3.49% |
| O=C(CCCC(=O)NCc1ccccc1)NCc1ccccc1 | 5.43% |
| Cc1ccc(CN2CCC(Oc3cccc(C(=O)N(C)CCN(C)C)c3)CC2)cc1C | 13.5% |
| CC1(N2CCCCC2)C(=O)c2ccccc2C1=O | 16.4% |
| Cc1cc(N2CCOCC2)nc2ccc(NC(=S)N3CCN(Cc4ccccc4)CC3)cc12 | -11.9% |
| COc1ccc(-c2ocnc2C(=O)N2CCN(C(=O)C(c3ccccc3)c3ccccc3)CC2)cc1 | 9.44% |
| CC(C)CCN1CCNC(=O)C1CC(=O)Nc1ccc(F)cc1 (centres unmarked) | 7.47% |
| C=CCc1ccc(OCC(O)CN2CCN(c3ccccc3OC)CC2)c(OC)c1.Cl (centres unmarked) | 8.86% |
| CCOc1ccc(OCCC(=O)OCC(=O)NCCc2ccc(S(N)(=O)=O)cc2)cc1 | 10.5% |
| O=C(c1ccc2ncsc2c1)N1CCN(c2nc3ccccc3s2)CC1 | 5.7% |
| CCOc1ccccc1NC(=O)NC1Cc2ccccc2C1 | 15.1% |
| CCCc1nc(SCc2ccc(Cl)cc2Cl)n[nH]1 | 15.7% |
| CCOC(=O)c1nn(-c2ccc(F)cc2)c(=O)cc1OCC(=O)Nc1ccc(OCC)cc1 | 10.8% |
| O=C(NCCCC1CCCC1)C1CCC(=O)N(Cc2ccccc2F)C1 (centres unmarked) | 8.79% |
| CN1CCN(NC(=O)CN2C(=O)/C(=C/c3ccccc3F)SC2=S)CC1 | 5.92% |
| Cl.N[C@@H](Cc1ccc(O)cc1)c1nnc([C@H](CCC(=O)O)NC(=O)C2CCNCC2)o1 | 9.57% |
| Cc1ccc(CNCC(=O)Nc2ccc(C)cc2Br)cc1 | 4.73% |
| CC(=O)N1CCN(C(=S)c2cccc([N+](=O)[O-])c2)CC1 | 4.82% |
| O=C(NNC(=O)c1ccc2ccccc2c1O)Nc1ccc(F)cc1 | 5.44% |
| CC(C)Cc1nnc(NC(=O)CC(C)c2ccccc2)s1 (centres unmarked) | 10.4% |
| CC(Sc1nnc(NC2CCCCC2)s1)C(=O)Nc1ccc2c(c1)C(=O)c1ccccc1C2=O (centres unmarked) | -2.03% |
| O=C(c1cccs1)N(Cc1ccco1)C1CCS(=O)(=O)C1 (centres unmarked) | 6.29% |

| SMILES | hERG current change (%, negative = inhibition) at 1uM |
| --- | --- |
| COC(=O)C1=C(c2ccc(Cl)c(C(F)(F)F)c2)C[C@@H]2CC[C@H]1N2C(=O)NCCCOC(C)C | 4.82% |
| COc1ccc(OCc2cc(C(=O)N3CCCCCC3)no2)c(Cl)c1 | 10.8% |
| CCCCNCCOCCOc1ccc(Cl)cc1Br.O=C(O)C(=O)O | -6.21% |
| O=C(CC12CC3CC(CC(C3)C1)C2)Nc1ccc(C(=O)O)cc1 | 2.94% |
| CC(C)Cn1c(CCC(N)=O)nnc1SC(C)C(=O)Nc1ccc2c(c1)OCO2 (centres unmarked) | 12.1% |
| Cc1cc(=O)oc(C)c1C(=O)N1CCc2c([nH]c3ccccc23)C1C(C)C (centres unmarked) | 6.72% |
| CCCN1CCC(=NNc2ccc(S(=O)(=O)N3CCOCC3)cc2[N+](=O)[O-])CC1 | -1.34% |
| Cc1ccc(OCCNC(=O)c2ccc(C)cc2)cc1 | 2.27% |
| O=C(N/N=C/c1ccc(O)cc1)c1ccncc1 | 14.9% |
| COc1cc(C(=O)NCc2nnc(SCC(=O)NCc3ccccc3)o2)cc(OC)c1OC | 17.1% |
| CC(=O)c1c(C)n(C)c2ccc(OC(=O)c3ccc([N+](=O)[O-])cc3)cc12 | 13.2% |
| CN(C)c1ccc(/C=C2\CCCCC2=O)cc1 | 4.18% |
| CN(CC(=O)O)S(=O)(=O)c1ccc2c(c1)n(C)c(=O)c(=O)n2C | 16.6% |
| CCCCN(C)CCNC(=O)c1cn(C)c(=O)c2c1c1ccccc1n2C | 11.3% |
| O=C(O)C(=O)O.c1ccc2c(CCNC3CCCCC3)c[nH]c2c1 | 19.6% |
| COCCCN1C(=O)C(=O)/C(=C(/O)c2ccc(S(=O)(=O)N3CCOCC3)cc2)C1c1ccc(F)cc1 (centres unmarked) | 6.04% |
| Cc1ccc(N2C(=O)c3ccccc3C2=O)nc1 | 13.2% |
| O=C(c1ccco1)N1CCN(c2nc3ccccc3c(=O)n2-c2ccccc2)CC1 | -22.1% |
| CC(=O)Nc1cccc(NC(=O)c2cc(-c3ccccn3)nc3ccc(Cl)cc23)c1 | -3.72% |
| COc1ccc(OC)c(NC(=O)C2CCN(S(=O)(=O)c3c(C)noc3C)CC2)c1 | 1.91% |
| CN(C)/C=C/c1c([N+](=O)[O-])c2ccc(O)cc2n1-c1ccccc1 | 13.6% |
| Cc1c(O)ccc(C(=O)CN2CCN(Cc3ccc4c(c3)OCO4)CC2)c1O | 0.814% |
